# Laboratory results published in the antibiotic and cytotoxicity screens of Wong et al. (2023).
# The other results are listed elsewhere or left out.
# Tests used:
# HSkMC = human skeletal muscle cells; experiment: cytotoxicity call (relative viability < 0.9); settings: 10 µM
# HepG2 = experiment: cytotoxicity call (relative viability < 0.9); settings: 10 µM
# S. aureus RN4220 = experiment: growth inhibition call (relative growth <= 0.2); settings: 50 µM
Structure (SMILES),cytotoxicity call (HSkMC),cytotoxicity call (HepG2),growth inhibition call (S. aureus RN4220)
C[C@H](CO)N1C[C@H](C)[C@H](CN(C)C(=O)Nc2cccc3ccccc23)Oc2ccc(NS(=O)(=O)c3ccc(Cl)cc3)cc2CC1=O,inactive,inactive,inactive
C[C@H](CO)N1C[C@H](C)[C@H](CN(C)C(=O)C2CCC2)Oc2cc(C#Cc3ccncc3)ccc2S1(=O)=O,inactive,active,inactive
O=C(C[C@H]1CC[C@H]2[C@@H](COC[C@@H](O)CN2S(=O)(=O)c2ccc(F)cc2)O1)NCc1ccc(Cl)c(Cl)c1,inactive,inactive,inactive
C[C@@H]1CN([C@H](C)CO)C(=O)Cc2cc(NC(=O)Nc3ccc4c(c3)OCO4)ccc2O[C@H]1CN(C)Cc1ccc(Cl)c(Cl)c1,inactive,inactive,inactive
C[C@H]1CN([C@@H](C)CO)C(=O)c2cc(NS(=O)(=O)c3ccccc3)ccc2O[C@H]1CN(C)S(=O)(=O)c1cccs1,inactive,inactive,inactive
COc1ccc(CN(C)C[C@@H]2OCCCC[C@H](C)Oc3ccc(NC(=O)Nc4cccc5ccccc45)cc3C(=O)N([C@@H](C)CO)C[C@@H]2C)cc1,active,inactive,inactive
O=C(O)c1cn2cccc(O)c2n1,inactive,inactive,inactive
Cc1ccc(OC(=O)N(C)C[C@H]2OCc3ccccc3-c3ccccc3C(=O)N([C@@H](C)CO)C[C@@H]2C)cc1,inactive,inactive,inactive
C[C@@H]1CCCCO[C@H](CN(C)S(=O)(=O)c2ccc(Cl)cc2)[C@H](C)CN([C@H](C)CO)C(=O)c2cc(NS(=O)(=O)c3ccc(Cl)cc3)ccc2O1,inactive,active,inactive
